# In all, about 33,000 sequences were measured (“E-score (dimensionless, -0.5 to 0.5)”: median about -0.058, highest 2% from about 0.35 on). This is one part of the list.
# Tested on: MvaT
# Assay: PBM 8-mer E-score (mean of HK and ME arrays) (E-score (dimensionless, -0.5 to 0.5)); higher = stronger relative binding preference; most listed sequences are background and not binding sites
# Procedure, shortened: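 Reported values are rank-based E-scores, taken as the mean of two universal arrays and parsed with a custom script. Each 8-mer score falls between -0.5 and 0.5. The arrays, ME and HK, were double-stranded 60-mers with a constant 25-mer primer region and a variable 35-mer region covering all 8-mers. They were probed, by an earlier protocol, with full-length P. aeruginosa MvaT carrying an N-terminal glutathione S-transferase fusion.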
row,Sequence,PBM 8-mer E-score
1,ATACTAGA,0.187
2,TTCCAAAA,0.182
3,CGCGGGTA,-0.0527
4,AACGACTG,-0.101
5,AGCTGCAT,-0.0375
6,CACCTACG,-0.0764
7,ATGAGTTA,0.0893
8,ACGTGTAT,0.137
9,AACACTAG,0.00131
10,ATACGGCA,0.135
11,ATCCTCTG,0.0138
12,AATTGCAT,0.243
13,CTAGATAA,0.128
14,CCGCGCTA,-0.12
15,ATATCAAT,0.325
16,ACATCTGA,0.0482
17,CGAAGTAA,0.194
18,GCGATACA,-0.0291
19,ATGGCCCC,-0.275
20,ATCTGGGG,-0.296
21,CGTAAGAC,-0.107
22,GCGTCCCA,-0.164
23,AAAGCCCT,-0.263
24,TAGTATAA,0.384
25,AACCTCCG,-0.234

row,Sequence,PBM 8-mer E-score
1,TGAAACAA,0.196
2,TACGCAGA,-0.0765
3,ATCCATGC,-0.188
4,CCAACGTA,-0.0592
5,CCCTGAGA,-0.276
6,CGAGGCCC,-0.217
7,GGACAACC,-0.234
8,CTAACGAC,-0.0501
9,ACTGTGCC,-0.156
10,AAGATCCG,-0.0782
11,GGTTTAGA,0.0324
12,ATAGGGTC,-0.131
13,AGGTAGAC,-0.0804
14,CGAAAGCA,-0.103
15,GACTTCTC,-0.00638
16,CATTGTCA,0.0168
17,TGCACCCA,-0.0225
18,CCAACCCC,-0.325
19,ACCATTAC,0.17
20,CAACGTGG,-0.235
21,ATTCACTA,0.168
22,GAGCGGAC,-0.17
23,TATATCGA,0.324
24,CTCGCGTA,-0.00329
25,GATGTGGC,-0.0862

row,Sequence,PBM 8-mer E-score
1,GTGTACCA,-0.141
2,CCAGGACC,-0.27
3,TGCCTACA,-0.13
4,ACTAGGGG,-0.2
5,AATGTAAA,0.314
6,GTGGTTAA,0.0836
7,GCGGGGAC,-0.306
8,AGGTATAA,0.291
9,CGTCGTGC,-0.249
10,CCGGAATA,0.259
11,GTTAAGCA,0.0863
12,GCAGACAC,-0.0644
13,ATCAAATG,0.0685
14,GTTAGCTA,-0.0646
15,CGGCATGC,-0.0979
16,AGAATGCA,-0.0318
17,AGCTAGAT,-0.0463
18,ATAGGAGA,-0.0113
19,GGCCGTAA,-0.107
20,TAGGTTCA,-0.101
21,CCCCTTGA,-0.176
22,ATCCACAC,0.0527
23,TACTTCCA,0.17
24,AAGTGTCG,0.172
25,CGTCGGTC,-0.148

row,Sequence,PBM 8-mer E-score
1,GATGATCA,-0.0834
2,GCCATACA,0.0801
3,ACTAATCG,0.0335
4,CGCGCTAG,-0.273
5,GAGCACGA,-0.273
6,AGACCTGC,-0.221
7,AACCGAAA,0.0688
8,AAGACTTA,0.138
9,AGTCTGCC,-0.278
10,CCCCCAGC,-0.259
11,CATACCGA,-0.0927
12,GGTCCCAA,-0.103
13,CGACTGGA,-0.161
14,GGCCTTAA,0.107
15,TCTGCCAA,-0.0279
16,AAGCAGGA,-0.19
17,CCATATGG,0.0147
18,CTGAGTCA,-0.205
19,AACCAAGT,0.168
20,ATGTGACC,-0.154
21,ATGAGAGA,-0.122
22,GGGCTGTA,-0.144
23,TACCGGTA,0.0709
24,AGACGATA,0.063
25,AATGCGGA,-0.206

row,Sequence,PBM 8-mer E-score
1,ACCTAGTA,0.0298
2,AAGATAAG,0.148
3,CACGGCGG,-0.131
4,CTATACGA,-0.0707
5,ACCTATCA,-0.127
6,ATATGCTC,0.128
7,ATACGCAT,-0.109
8,TTCTGCAA,0.105
9,AGATCGTG,-0.0847
10,AAGGCCCA,-0.199
11,CACGCATG,-0.172
12,CCTGGTCA,-0.2
13,AATCATCT,-0.117
14,GCGCTCAA,-0.14
15,CACCCTAA,-0.0705
16,ACAGTTCA,0.0268
17,GGATGGAC,-0.327
18,CATTCTGA,-0.0574
19,GAACGATC,-0.251
20,TCACTGGA,-0.00201
21,CTACCCGC,-0.143
22,CCTCCCGA,-0.214
23,GTCTGTAA,-0.026
24,ATCACTGC,-0.146
25,CGCCTCCA,-0.236

row,Sequence,PBM 8-mer E-score
1,CAAACATC,0.053
2,AAATAGTT,0.351
3,AACGCGCC,-0.137
4,ACAGGTAC,0.000213
5,TATCAGGA,0.0514
6,GCGGACGC,-0.276
7,CCCATTGC,-0.0601
8,CTCGACTC,-0.141
9,GAAATTCC,0.0149
10,ATGGTAAG,0.0817
11,ACCTACAA,-0.0373
12,GATCACAC,0.106
13,GCTGTCAC,-0.214
14,CGGTTCCA,-0.074
15,AGGGTTTC,-0.282
16,CACTCTAG,-0.00622
17,CCCGGAGG,-0.297
18,CCTTATTC,0.189
19,ACAACGTA,0.0857
20,ACACCGCC,0.0303
21,AGAACGGG,-0.153
22,CTGAAAAA,0.0845
23,AAATCAAT,0.254
24,CGGCCCCG,-0.223
25,AGGGTTAC,-0.112

row,Sequence,PBM 8-mer E-score
1,AGTCCAGG,-0.122
2,AACAAGAT,0.164
3,CAACCGCG,-0.0877
4,CGATGCAC,-0.128
5,CTATCTAA,0.179
6,GCAGGCAA,-0.0309
7,AGTTAAAC,0.242
8,AACCATGC,0.0641
9,ACGGCCAG,-0.203
10,AAAGTCAA,0.0934
11,TAAATGAA,0.307
12,GGCCCAAC,-0.222
13,GCTCTGAC,-0.296
14,ACCACATG,-0.000124
15,CCGGAACA,-0.00216
16,CTGCCAAC,0.00399
17,ACTTAGGC,0.0749
18,ACCCCGTC,-0.312
19,CGCGCCAA,-0.0864
20,TGAAGGAA,-0.11
21,ACGGGTCG,-0.224
22,ATATCACC,0.0631
